Measured values: the supplement of paper PMC8728848
The other results are listed elsewhere or left out.

Legend:
Test in all cases: glycan array binding signal (z-score within array); higher = stronger binding
Details in all cases: glycan notation: IUPAC condensed, linker removed
Kdn(a2-3)Gal(b1-4)Glc = molecular target: Kdn(a2-3)Gal(b1-4)Glc
Procedure, shortened: (§1)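 The binding signal is a Z-score computed within each array and averaged over linkers. Arrays of the same protein sequence at different concentrations or buffers were also averaged together. Data originate from 3228 arrays in the Consortium for Functional Glycomics database, kept only where the protein sequence was available.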

Kdn(a2-3)Gal(b1-4)GlcNAc = molecular target: Kdn(a2-3)Gal(b1-4)GlcNAc
Procedure, shortened: as §1

[1] = molecular target: Kdn(a2-3)Gal(b1-4)[Fuc(a1-3)]GlcNAc
Procedure, shortened: as §1

Kdn(a2-6)Gal(b1-4)GlcNAc = molecular target: Kdn(a2-6)Gal(b1-4)GlcNAc
Procedure, shortened: as §1

[2] = molecular target: Man(a1-2)Man(a1-2)Man(a1-3)Man
Procedure, shortened: as §1

[3] = molecular target: Man(a1-2)Man(a1-2)Man(a1-6)[Man(a1-3)]Man
Procedure, shortened: as §1

Man(a1-2)Man(a1-3)Man = molecular target: Man(a1-2)Man(a1-3)Man
Procedure, shortened: as §1

[4] = molecular target: Man(a1-2)Man(a1-3)[Man(a1-2)Man(a1-6)]Man
Procedure, shortened: as §1

[5] = molecular target: Man(a1-2)Man(a1-3)[Man(a1-2)Man(a1-6)]Man(a1-6)[Man(a1-2)Man(a1-2)Man(a1-3)]Man
Procedure, shortened: as §1

[6] = molecular target: Man(a1-2)Man(a1-3)[Man(a1-2)Man(a1-6)]Man(a1-6)[Man(a1-2)Man(a1-2)Man(a1-3)]Man(b1-4)GlcNAc(b1-4)GlcNAc
Procedure, shortened: as §1

[7] = molecular target: Man(a1-2)Man(a1-3)[Man(a1-6)]Man(a1-6)[Man(a1-2)Man(a1-3)]Man(b1-4)GlcNAc(b1-4)GlcNAc
Procedure, shortened: as §1

[8] = molecular target: Man(a1-2)Man(a1-6)[Man(a1-3)]Man(a1-6)[Man(a1-2)Man(a1-2)Man(a1-3)]Man
Procedure, shortened: as §1

[9] = molecular target: Man(a1-2)Man(a1-6)[Man(a1-3)]Man(a1-6)[Man(a1-2)Man(a1-2)Man(a1-3)]Man(b1-4)GlcNAc(b1-4)GlcNAc
Procedure, shortened: as §1

Man(a1-3)[Man(a1-6)]Man = molecular target: Man(a1-3)[Man(a1-6)]Man
Procedure, shortened: as §1

[10] = molecular target: Man(a1-3)[Man(a1-6)]Man(a1-6)[Man(a1-2)Man(a1-3)]Man(b1-4)GlcNAc(b1-4)GlcNAc
Procedure, shortened: as §1

[11] = molecular target: Man(a1-3)[Man(a1-6)]Man(a1-6)[Man(a1-3)]Man
Procedure, shortened: as §1

[12] = molecular target: Man(a1-3)[Man(a1-6)]Man(a1-6)[Man(a1-3)]Man(b1-4)GlcNAc(b1-4)GlcNAc
Procedure, shortened: as §1

[13] = molecular target: Man(a1-3)[Man(a1-6)]Man(b1-4)GlcNAc(b1-4)GlcNAc
Procedure, shortened: as §1

[14] = molecular target: Man(a1-3)[Man(a1-6)]Man(b1-4)GlcNAc(b1-4)[Fuc(a1-6)]GlcNAc
Procedure, shortened: as §1

Man(a1-6)Man = molecular target: Man(a1-6)Man
Procedure, shortened: as §1

Man(b1-4)GlcNAc = molecular target: Man(b1-4)GlcNAc
Procedure, shortened: as §1

MurNAc(b1-4)GlcNAc = molecular target: MurNAc(b1-4)GlcNAc
Procedure, shortened: as §1

Neu5Ac(a2-3)Gal = molecular target: Neu5Ac(a2-3)Gal
Procedure, shortened: as §1

[15] = molecular target: Neu5Ac(a2-3)Gal(b1-3)GalNAc
Procedure, shortened: as §1

[16] = molecular target: Neu5Ac(a2-3)Gal(b1-3)GalNAc(b1-3)Gal(a1-4)Gal(b1-4)Glc
Procedure, shortened: as §1

[17] = molecular target: Neu5Ac(a2-3)Gal(b1-3)GalNAc(b1-4)Gal(b1-4)Glc
Procedure, shortened: as §1

[18] = molecular target: Neu5Ac(a2-3)Gal(b1-3)GalNAc(b1-4)[Neu5Ac(a2-3)]Gal(b1-4)Glc
Procedure, shortened: as §1

[19] = molecular target: Neu5Ac(a2-3)Gal(b1-3)GalNAc(b1-4)[Neu5Ac(a2-8)Neu5Ac(a2-3)]Gal(b1-4)Glc
Procedure, shortened: as §1

[20] = molecular target: Neu5Ac(a2-3)Gal(b1-3)GalNAc6S
Procedure, shortened: as §1

[21] = molecular target: Neu5Ac(a2-3)Gal(b1-3)GlcNAc
Procedure, shortened: as §1

[22] = molecular target: Neu5Ac(a2-3)Gal(b1-3)GlcNAc(b1-2)Man
Procedure, shortened: as §1

[23] = molecular target: Neu5Ac(a2-3)Gal(b1-3)GlcNAc(b1-2)Man(a1-3)[GlcNAc(b1-4)][Neu5Ac(a2-3)Gal(b1-3)GlcNAc(b1-2)Man(a1-6)]Man(b1-4)GlcNAc(b1-4)GlcNAc
Procedure, shortened: as §1

[24] = molecular target: Neu5Ac(a2-3)Gal(b1-3)GlcNAc(b1-2)Man(a1-3)[Neu5Ac(a2-3)Gal(b1-3)GlcNAc(b1-2)Man(a1-6)]Man(b1-4)GlcNAc(b1-4)GlcNAc
Procedure, shortened: as §1

[25] = molecular target: Neu5Ac(a2-3)Gal(b1-3)GlcNAc(b1-2)[Neu5Ac(a2-3)Gal(b1-3)GlcNAc(b1-4)]Man(a1-6)[Neu5Ac(a2-3)Gal(b1-3)GlcNAc(b1-2)Man(a1-3)]Man(b1-4)GlcNAc(b1-4)GlcNAc
Procedure, shortened: as §1

[26] = molecular target: Neu5Ac(a2-3)Gal(b1-3)GlcNAc(b1-3)Gal(b1-3)GlcNAc
Procedure, shortened: as §1

[27] = molecular target: Neu5Ac(a2-3)Gal(b1-3)GlcNAc(b1-3)Gal(b1-4)GlcNAc
Procedure, shortened: as §1

[28] = molecular target: Neu5Ac(a2-3)Gal(b1-3)GlcNAc(b1-3)GalNAc
Procedure, shortened: as §1

[29] = molecular target: Neu5Ac(a2-3)Gal(b1-3)GlcNAc(b1-6)GalNAc
Procedure, shortened: as §1

B1: diCBM40 CPF071 (Clostridium perfringens) (protein)
chain: MAHHHHHHVGTGSNDDDDKSPDPMLSSLGEYKDINLESSNASNITYDLEKYKNLDEGTIVVRFNSKDSKIQSLLGISNSKTKNGYFNFYVTNSRVGFELRNQKNEGNTQNGTENLVHMYKDVALNDGDNTVALKIEKNKGYKLFLNGKMIKEVKDTNTKFLNNIENLDSAFIGKTNRYGQSNEYNFKGNIGFMNIYNEPLGDDYLLSKTGETKALNGSELGSGSGLSSLGEYKDINLESSNASNITYDLEKYKNLDEGTIVVRFNSKDSKIQSLLGISNSKTKNGYFNFYVTNSRVGFELRNQKNEGNTQNGTENLVHMYKDVALNDGDNTVALKIEKNKGYKLFLNGKMIKEVKDTNTKFLNNIENLDSAFIGKTNRYGQSNEYNFKGNIGFMNIYNEPLGDDYLLSKTGETK
glycan array binding signal (z-score) (Kdn(a2-3)Gal(b1-4)Glc): -0.094
glycan array binding signal (z-score) (Kdn(a2-3)Gal(b1-4)GlcNAc): -0.193
glycan array binding signal (z-score) [1]: -0.293
glycan array binding signal (z-score) (Kdn(a2-6)Gal(b1-4)GlcNAc): -0.286
glycan array binding signal (z-score) [2]: -0.337
glycan array binding signal (z-score) [3]: -0.285
glycan array binding signal (z-score) (Man(a1-2)Man(a1-3)Man): -0.203
glycan array binding signal (z-score) [4]: -0.321
glycan array binding signal (z-score) [5]: -0.292
glycan array binding signal (z-score) [6]: -0.293
glycan array binding signal (z-score) [7]: -0.083
glycan array binding signal (z-score) [8]: -0.188
glycan array binding signal (z-score) [9]: -0.217
glycan array binding signal (z-score) (Man(a1-3)[Man(a1-6)]Man): -0.344
glycan array binding signal (z-score) [10]: -0.227
glycan array binding signal (z-score) [11]: -0.322
glycan array binding signal (z-score) [12]: -0.245
glycan array binding signal (z-score) [13]: -0.321
glycan array binding signal (z-score) [14]: -0.312
glycan array binding signal (z-score) (Man(a1-6)Man): -0.274
glycan array binding signal (z-score) (Man(b1-4)GlcNAc): -0.241
glycan array binding signal (z-score) (MurNAc(b1-4)GlcNAc): -0.264
glycan array binding signal (z-score) (Neu5Ac(a2-3)Gal): 2.38
glycan array binding signal (z-score) [15]: 0.163
glycan array binding signal (z-score) [16]: -0.036
glycan array binding signal (z-score) [17]: -0.232
glycan array binding signal (z-score) [18]: 0.404
glycan array binding signal (z-score) [19]: -0.278
glycan array binding signal (z-score) [20]: 2.26
glycan array binding signal (z-score) [21]: 0.623
glycan array binding signal (z-score) [22]: 0.256
glycan array binding signal (z-score) [23]: -0.21
glycan array binding signal (z-score) [24]: -0.3
glycan array binding signal (z-score) [25]: 5.89
glycan array binding signal (z-score) [26]: -0.162
glycan array binding signal (z-score) [27]: -0.055
glycan array binding signal (z-score) [28]: -0.009
glycan array binding signal (z-score) [29]: -0.181
